Molecular target: the molecule itself
Assay: cryo-EM structure

B1: GluA2 (AMPA-type glutamate receptor pore-forming subunit), tetramer (receptor)
chain: not shown
modifications: glycosylation at N241
Question: Which “stoichiometry N” value does the source give for B1 here?
Answer: 4
